According to paper PMC4977824:
No constants are given. Whether binding was seen depends on the method and setting. For some assays here: Binding seen in cells or lysates may run through a third protein. Some entries that bind do so weakly or less than the wild type. Values belong to the binder of their own block, whether it stands above or below them.

Chains of the proteins cited; added tags and fusions are not shown.
UniProt Q05062: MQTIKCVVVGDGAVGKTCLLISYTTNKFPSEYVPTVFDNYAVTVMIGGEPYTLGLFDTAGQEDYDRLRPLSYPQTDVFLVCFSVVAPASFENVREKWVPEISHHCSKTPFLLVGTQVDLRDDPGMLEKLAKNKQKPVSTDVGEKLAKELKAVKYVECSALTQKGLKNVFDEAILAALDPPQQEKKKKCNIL

Legend:
[1] = target: GTA::CDC-42 (Avi-2xTEV-GFP::CDC-42) (C. elegans) (UniProt Q05062); experiment: co-purification (independent experiment, not shown; detection not stated); independent experiment, data not shown
[2] = target: T1, DLG-1 (endogenous) (C. elegans (endogenous in embryos)) (UniProt G5ECY0); experiment: co-IP; C. elegans embryo lysate (20 mM Tris-HCl pH 7.8, 250 mM NaCl, 15 % glycerol, 1 % Triton X-100), 1 mg protein, IP with anti-PSD95 (DLG-1) or anti-ATAD-3 on protein G or A Sepharose, 1 h at 4 °C, western blot; controls with RNAi against gfp, dlg-1 or atad-3
T1 sequence: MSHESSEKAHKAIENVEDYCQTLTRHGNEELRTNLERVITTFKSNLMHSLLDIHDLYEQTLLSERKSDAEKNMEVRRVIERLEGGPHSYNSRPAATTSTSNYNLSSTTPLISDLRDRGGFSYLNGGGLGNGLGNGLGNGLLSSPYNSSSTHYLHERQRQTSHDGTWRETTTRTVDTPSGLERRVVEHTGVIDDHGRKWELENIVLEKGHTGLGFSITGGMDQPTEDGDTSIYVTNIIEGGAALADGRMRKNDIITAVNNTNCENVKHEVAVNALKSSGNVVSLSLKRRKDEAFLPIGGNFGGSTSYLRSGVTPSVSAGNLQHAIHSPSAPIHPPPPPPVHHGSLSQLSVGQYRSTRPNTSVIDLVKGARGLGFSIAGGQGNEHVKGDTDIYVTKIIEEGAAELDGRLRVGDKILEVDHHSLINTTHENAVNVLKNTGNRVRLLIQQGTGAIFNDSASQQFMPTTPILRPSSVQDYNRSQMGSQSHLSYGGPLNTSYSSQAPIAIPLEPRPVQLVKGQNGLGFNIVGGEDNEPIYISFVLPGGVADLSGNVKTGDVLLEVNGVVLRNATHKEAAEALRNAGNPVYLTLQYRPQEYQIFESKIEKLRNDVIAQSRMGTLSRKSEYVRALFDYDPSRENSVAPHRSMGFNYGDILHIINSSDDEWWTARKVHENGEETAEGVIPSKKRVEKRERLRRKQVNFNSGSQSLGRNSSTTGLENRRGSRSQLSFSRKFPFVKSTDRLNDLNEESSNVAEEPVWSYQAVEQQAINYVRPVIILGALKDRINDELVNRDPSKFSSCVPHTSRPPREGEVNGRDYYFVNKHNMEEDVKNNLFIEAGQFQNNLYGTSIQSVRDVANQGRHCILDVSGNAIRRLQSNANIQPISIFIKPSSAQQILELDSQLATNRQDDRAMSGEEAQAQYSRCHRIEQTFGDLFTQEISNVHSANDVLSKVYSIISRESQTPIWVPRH

[3] = target: T2, ATAD-3 (endogenous) (C. elegans (endogenous in whole animals and embryos)) (UniProt Q20748); experiment: as above
T2 sequence: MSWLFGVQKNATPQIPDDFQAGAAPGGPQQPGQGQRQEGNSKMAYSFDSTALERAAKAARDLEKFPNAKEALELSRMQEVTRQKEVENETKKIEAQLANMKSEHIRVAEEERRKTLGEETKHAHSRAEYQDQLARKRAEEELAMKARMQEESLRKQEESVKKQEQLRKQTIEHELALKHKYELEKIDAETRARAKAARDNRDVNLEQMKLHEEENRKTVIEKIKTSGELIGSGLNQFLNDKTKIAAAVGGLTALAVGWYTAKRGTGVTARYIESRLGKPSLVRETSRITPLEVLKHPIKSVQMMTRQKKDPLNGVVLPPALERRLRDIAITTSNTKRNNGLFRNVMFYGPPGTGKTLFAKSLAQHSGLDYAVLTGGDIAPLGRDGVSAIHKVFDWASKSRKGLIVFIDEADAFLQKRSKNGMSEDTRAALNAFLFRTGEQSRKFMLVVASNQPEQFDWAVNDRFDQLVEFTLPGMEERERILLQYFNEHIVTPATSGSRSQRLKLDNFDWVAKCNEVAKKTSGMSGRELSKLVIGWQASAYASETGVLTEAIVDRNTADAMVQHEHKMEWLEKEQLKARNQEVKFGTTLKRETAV

binding [1]: binds
B1: RHI-1 (protein, UniProt Q20496 1-191)
chain: MSDHENTGENTSEYQYKQPPQKSIDELLNADKEDESLKVYKAKLLGQGTVIVDEKNPLRVIVRSVELLINGKTAQSFDLSDPAKLVNSDLSVSIKEGSNYRLSFAFHVQREITSGLHYKHKVKRSGITVENEKYMMGSYAPKLEIQEYKSPNEEAPSGMMHRGKYKVYSKITDDDNNVYLDWQWTLHITKE

binding [3]: binds
B5: DLG-1 (endogenous) (protein, UniProt G5ECY0 1-967)
chain: T1 sequence

Continued, binder first:

B2: ATAD-3 (endogenous) (protein, UniProt Q20748 1-595)
chain: T2 sequence
binding [2]: binds

B3: ATAD-3^FL (full-length ATAD-3 transgene) (protein, UniProt Q20748 1-595)
chain: T2 sequence
binding [2]: binds

B4: ATAD-3^ΔETAV (ATAD-3 lacking the C-terminal four amino acids) (domain or fragment, UniProt Q20748 1-591)
chain: MSWLFGVQKNATPQIPDDFQAGAAPGGPQQPGQGQRQEGNSKMAYSFDSTALERAAKAARDLEKFPNAKEALELSRMQEVTRQKEVENETKKIEAQLANMKSEHIRVAEEERRKTLGEETKHAHSRAEYQDQLARKRAEEELAMKARMQEESLRKQEESVKKQEQLRKQTIEHELALKHKYELEKIDAETRARAKAARDNRDVNLEQMKLHEEENRKTVIEKIKTSGELIGSGLNQFLNDKTKIAAAVGGLTALAVGWYTAKRGTGVTARYIESRLGKPSLVRETSRITPLEVLKHPIKSVQMMTRQKKDPLNGVVLPPALERRLRDIAITTSNTKRNNGLFRNVMFYGPPGTGKTLFAKSLAQHSGLDYAVLTGGDIAPLGRDGVSAIHKVFDWASKSRKGLIVFIDEADAFLQKRSKNGMSEDTRAALNAFLFRTGEQSRKFMLVVASNQPEQFDWAVNDRFDQLVEFTLPGMEERERILLQYFNEHIVTPATSGSRSQRLKLDNFDWVAKCNEVAKKTSGMSGRELSKLVIGWQASAYASETGVLTEAIVDRNTADAMVQHEHKMEWLEKEQLKARNQEVKFGTTLKR
binding [2]: no binding
